Measured values published in the supplement of paper PMC5998384.

Columns and labels:
[1] = system: HeLa Kyoto; test: solubility in G1/S (NP-40 vs SDS abundance) (log2 ratio); higher = more soluble; conditions: cell cycle stage: G1/S
[2] = system: HeLa Kyoto; test: melting temperature (median over replicates), in situ; higher = more thermally stable
[3] = system: HeLa Kyoto; test: thermal stability score vs G1/S (z-score of summed log2 fold changes over temperatures); higher = more thermally stable than in G1/S
[4] = system: HeLa Kyoto; test: solubility change mitosis vs G1/S (difference of NP-40 vs SDS log2 ratios) (log2 ratio difference); higher = more soluble in mitosis
[5] = cell cycle stage: early G1 (4.5 h after nocodazole release)
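Throughout, for melting temperature (median over replicates), in situ: HeLa Kyoto cells synchronized by double thymidine or nocodazole block, proteins quantified by TMT10plex mass spectrometry, three independent biological replicates.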
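Throughout, for solubility change mitosis vs G1/S (difference of NP-40 vs SDS log2 ratios): synchronized HeLa Kyoto cells (double thymidine block for G1/S, nocodazole release for mitosis), protein amounts in NP-40 versus SDS lysates quantified by mass spectrometry, three biological replicates.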
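Throughout, for solubility in G1/S (NP-40 vs SDS abundance): HeLa Kyoto cells arrested at G1/S by double thymidine block, proteins quantified by TMT10plex mass spectrometry in mild NP-40 versus SDS extracts, three biological replicates.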
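Throughout, for thermal stability score vs G1/S (z-score of summed log2 fold changes over temperatures): synchronized HeLa Kyoto cells, proteins quantified by TMT10plex mass spectrometry, three biological replicates, mitosis taken 0.5 h after nocodazole release, G1/S directly after double thymidine block.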

Sequence	solubility in G1/S (log2) [1]	melting temperature ([2]; cell cycle stage: G1/S) [°C]	melting temperature ([2]; cell cycle stage: mitosis) [°C]	thermal stability score [3, 5]	thermal stability score ([3]; cell cycle stage: mitosis)	solubility change mitosis (log2) [4]
MSSAAEPPPPPPPESAPSKPAASIASGGSNSSNKGGPEGVAAQAVASAASAGPADAEMEEIFDDASPGKQKEIQEPDPTYEEKMQTDRANRFEYLLKQTELFAHFIQPAAQKTPTSPLKMKPGRPRIKKDEKQNLLSVGDYRHRRTEQEEDEELLTESSKATNVCTRFEDSPSYVKWGKLRDYQVRGLNWLISLYENGINGILADEMGLGKTLQTISLLGYMKHYRNIPGPHMVLVPKSTLHNWMSEFKRWVPTLRSVCLIGDKEQRAAFVRDVLLPGEWDVCVTSYEMLIKEKSVFKKFNWRYLVIDEAHRIKNEKSKLSEIVREFKTTNRLLLTGTPLQNNLHELWSLLNFLLPDVFNSADDFDSWFDTNNCLGDQKLVERLHMVLRPFLLRRIKADVEKSLPPKKEVKIYVGLSKMQREWYTRILMKDIDILNSAGKMDKMRLLNILMQLRKCCNHPYLFDGAEPGPPYTTDMHLVTNSGKMVVLDKLLPKLKEQGSRVLIFSQMTRVLDILEDYCMWRNYEYCRLDGQTPHDERQDSINAYNEPNSTKFVFMLSTRAGGLGINLATADVVILYDSDWNPQVDLQAMDRAHRIGQTKTVRVFRFITDNTVEERIVERAEMKLRLDSIVIQQGRLVDQNLNKIGKDEMLQMIRHGATHVFASKESEITDEDIDGILERGAKKTAEMNEKLSKMGESSLRNFTMDTESSVYNFEGEDYREKQKIAFTEWIEPPKRERKANYAVDAYFREALRVSEPKAPKAPRPPKQPNVQDFQFFPPRLFELLEKEILFYRKTIGYKVPRNPELPNAAQAQKEEQLKIDEAESLNDEELEEKEKLLTQGFTNWNKRDFNQFIKANEKWGRDDIENIAREVEGKTPEEVIEYSAVFWERCNELQDIEKIMAQIERGEARIQRRISIKKALDTKIGRYKAPFHQLRISYGTNKGKNYTEEEDRFLICMLHKLGFDKENVYDELRQCIRNSPQFRFDWFLKSRTAMELQRRCNTLITLIERENMELEEKEKAEKKKRGPKPSTQKRKMDGAPDGRGRKKKLKL [SMARCA5]	-1.11	47.6	49.7	2.44	6.98	0.525
MAEPLKEEDGEDGSAEPPGPVKAEPAHTAASVAAKNLALLKARSFDVTFDVGDEYEIIETIGNGAYGVVSSARRRLTGQQVAIKKIPNAFDVVTNAKRTLRELKILKHFKHDNIIAIKDILRPTVPYGEFKSVYVVLDLMESDLHQIIHSSQPLTLEHVRYFLYQLLRGLKYMHSAQVIHRDLKPSNLLVNENCELKIGDFGMARGLCTSPAEHQYFMTEYVATRWYRAPELMLSLHEYTQAIDLWSVGCIFGEMLARRQLFPGKNYVHQLQLIMMVLGTPSPAVIQAVGAERVRAYIQSLPPRQPVPWETVYPGADRQALSLLGRMLRFEPSARISAAAALRHPFLAKYHDPDDEPDCAPPFDFAFDREALTRERIKEAIVAEIEDFHARREGIRQQIRFQPSLQPVASEPGCPDVEMPSPWAPSGDCAMESPPPAPPPCPGPAPDTIDLTLQPPPPVSEPAPPKKDGAISDNTKAALKAALLKSLRSRLRDGPSAPLEAPEPRKPVTAQERQREREEKRRRRQERAKEREKRRQERERKERGAGASGGPSTDPLAGLVLSDNDRSLLERWTRMARPAAPALTSVPAPAPAPTPTPTPVQPTSPPPGPVAQPTGPQPQSAGSTSGPVPQPACPPPGPAPHPTGPPGPIPVPAPPQIATSTSLLAAQSLVPPPGLPGSSTPGVLPYFPPGLPPPDAGGAPQSSMSESPDVNLVTQQLSKSQVEDPLPPVFSGTPKGSGAGYGVGFDLEEFLNQSFDMGVADGPQDGQADSASLSASLLADWLEGHGMNPADIESLQREIQMDSPMLLADLPDLQDP [MAPK7]	0.0455	49.7	50.2	1.5	0.555	-0.123
